This is one part of the list.
Each sequence was assayed against T1, OsWOX13 (Oryza sativa, UniProt Q5QMM3 1-267) (assay: protein-binding microarray (RPBM); PBS, 2% BSA, 51.3 ng/ul salmon testes DNA, 50 uM zinc acetate, 200 nM TF, 25 C, 1 h; high values mean tight binding). Conditions: protein: recombinant; tags: N-terminal polyhistidine and DsRed monomer fusion (pET32a); label: CyDye5-dUTP incorporated in the synthesized complementary strand; 3' TTTTT single-stranded linker to array surface; dsDNA, one strand shown.
T1 sequence: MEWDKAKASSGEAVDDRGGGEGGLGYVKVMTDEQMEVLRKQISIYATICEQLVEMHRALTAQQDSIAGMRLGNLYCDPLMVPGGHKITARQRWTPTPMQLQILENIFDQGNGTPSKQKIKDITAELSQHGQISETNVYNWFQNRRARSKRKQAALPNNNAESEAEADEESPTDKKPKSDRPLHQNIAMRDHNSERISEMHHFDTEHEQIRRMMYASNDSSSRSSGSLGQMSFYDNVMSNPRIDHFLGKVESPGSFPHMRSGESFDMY
Method in brief: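 An Axon 4000B scanner gave the binding signal as per-feature fluorescence intensity in arbitrary units. This followed washing of a custom Agilent array that had been incubated for 1 h at 25 °C with 200 nM protein in PBS, 2% BSA, salmon testes DNA and 50 µM zinc acetate. The proteins were transcription factors fused at the N-terminus to polyhistidine and DsRed, expressed in E. coli BL21-CodonPlus and purified on Ni–NTA.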

Sequence	binding signal
TCTCTGGGAATTTTGATTGTTGGAATTGTGCATTTTGTGGCGGAGTCACCTAGTGCAG	4890 fluorescence intensity (a.u.)
TTCCGATTGAGGAATGTTATTCACACAAGCGCAGGAGATGCGGAGTCACCTAGTGCAG	4130 fluorescence intensity (a.u.)
ACAGCGCTAATTACTTTTGGATCATGACGCCAAGTTGGTCCGGAGTCACCTAGTGCAG	11300 fluorescence intensity (a.u.)
CAAATAATTTACTGATAGTCACCTTCATGGCAGATAAAATCGGAGTCACCTAGTGCAG	5020 fluorescence intensity (a.u.)
CCAAATAATTGCGTTAAGGCTGGCCTGGAGGAGGACGTGCCGGAGTCACCTAGTGCAG	14100 fluorescence intensity (a.u.)
CTTCTGATTTCTTTTAGAGATATTAAATGTTAAGATCATTCGGAGTCACCTAGTGCAG	6040 fluorescence intensity (a.u.)
TATTGGTGATTAGGGATGTTATACAGATTCAAGTACTCGACGGAGTCACCTAGTGCAG	17400 fluorescence intensity (a.u.)
GCCCCTTAATGGACGCATCCTGCACGACGACGGACGCAGGCGGAGTCACCTAGTGCAG	4270 fluorescence intensity (a.u.)
AATCTAAATTACTATTTAGCGGTTCGGGAAGCATGTCATACGGAGTCACCTAGTGCAG	7140 fluorescence intensity (a.u.)
AATCTAATAGATGAAAATAGTGGGCTACCGATTTATTAGACGGAGTCACCTAGTGCAG	4000 fluorescence intensity (a.u.)
TTAGTTAAATTATGTTAAAATTTTAAATAATTTTGGTCTACGGAGTCACCTAGTGCAG	27400 fluorescence intensity (a.u.)
GAAGCCATTTATAAACTAAATTAGTAGGTAACCCTTGAATCGGAGTCACCTAGTGCAG	7220 fluorescence intensity (a.u.)
GACTGATCAACAGCAATAATCACTCTGTTATTATTTGGTGCGGAGTCACCTAGTGCAG	3340 fluorescence intensity (a.u.)
AATAAACAAATTTTGGCACAATCTATTACTAAGAATCTGGCGGAGTCACCTAGTGCAG	4510 fluorescence intensity (a.u.)
ATAAATTTTAAATGCTACAAACCATTGTATCTTGGAACTGCGGAGTCACCTAGTGCAG	6120 fluorescence intensity (a.u.)
GATAAAAGTTAAATTTAAAATTACATTTATCTTGGGATGGCGGAGTCACCTAGTGCAG	9270 fluorescence intensity (a.u.)
AATACTTGCAAATTAGCTAACTAGTTCTCCTAATTGAGCCCGGAGTCACCTAGTGCAG	9350 fluorescence intensity (a.u.)
ATGACAGTCTAACTCTTGAGATTAATTCTTGATATTTCAGCGGAGTCACCTAGTGCAG	4850 fluorescence intensity (a.u.)
TTTTATAATTAATCTATATTTAATACTCTAAATTAGTGTCCGGAGTCACCTAGTGCAG	10900 fluorescence intensity (a.u.)
GTCTCGTCAACCTAATTAACCGCGTGGTTAGCAGGTTAGGCGGAGTCACCTAGTGCAG	11500 fluorescence intensity (a.u.)
GGGTAATTTCACATAACAAGCTTTGTGGCATGCTATACAGCGGAGTCACCTAGTGCAG	8370 fluorescence intensity (a.u.)

Sequence	binding signal
CTGATTCAAATTTGAATTTGAATTCAAATATTTTCTATATCGGAGTCACCTAGTGCAG	3990 fluorescence intensity (a.u.)
TTTGCTTGATTGATCAATCAAACAGTAAATTAATCATCAACGGAGTCACCTAGTGCAG	48000 fluorescence intensity (a.u.)
CTCTAATTAAGACTAATTGGAGAGGCCTCTCCAAATAGATCGGAGTCACCTAGTGCAG	14600 fluorescence intensity (a.u.)
TTTATTATGATAGACAATTAATGTTTCAAAATAATTAGATCGGAGTCACCTAGTGCAG	21500 fluorescence intensity (a.u.)
TGTAAATGGATCAGATAGTGATACAATAAATTTTAGCCCACGGAGTCACCTAGTGCAG	4910 fluorescence intensity (a.u.)
TTCCGGTTCCTGATTGCTTGCTCCACCGATTGACCGATCGCGGAGTCACCTAGTGCAG	18100 fluorescence intensity (a.u.)
ATGTTTTAGAAAATAAATTAGCAATCAAAGTTGCATGTTGCGGAGTCACCTAGTGCAG	7470 fluorescence intensity (a.u.)
TTAATTGACTTGTTCAGTTGTTCACAAGTTCACGCTGCCGCGGAGTCACCTAGTGCAG	28800 fluorescence intensity (a.u.)
GTTAATGGAGGTATGGAAATTTGTGACACGTCTCCAAATGCGGAGTCACCTAGTGCAG	5550 fluorescence intensity (a.u.)
ACAGATGATCAATACTAGAATTAACTCGCCAAATTGAGGTCGGAGTCACCTAGTGCAG	3940 fluorescence intensity (a.u.)
AAAATTTCTGTTGATTGCGTCGAAACCTTCGCAATCCTCTCGGAGTCACCTAGTGCAG	27800 fluorescence intensity (a.u.)
TCTAAATTATGTATCTCTCAATATCAATATGTAAATATTACGGAGTCACCTAGTGCAG	3870 fluorescence intensity (a.u.)
TGTGATGGAAAAGTTGAAAGTTTGTGTGTAGGTAAGTTTTCGGAGTCACCTAGTGCAG	5640 fluorescence intensity (a.u.)
TCCTAAACTGCTAATTTCTTATTTGTTCTGTCATAAAATACGGAGTCACCTAGTGCAG	8000 fluorescence intensity (a.u.)
CACTCCCCATCCAATCAAACTCCTCCGATCCCAATCCAACCGGAGTCACCTAGTGCAG	5160 fluorescence intensity (a.u.)
TCCATTAAATTTGAATGTCTCTTCCCTACAAAATGTTACTCGGAGTCACCTAGTGCAG	5620 fluorescence intensity (a.u.)
AACTAATTAATAATTATGACCATTAACAAACACACAAATACGGAGTCACCTAGTGCAG	26000 fluorescence intensity (a.u.)
TGCATGAATTGATCAACAAGACAAAAGTTACAAAACATGTCGGAGTCACCTAGTGCAG	4160 fluorescence intensity (a.u.)
CACAATTGCGCATAGTTAACGATTAATAACCAAAGCCTTGCGGAGTCACCTAGTGCAG	3400 fluorescence intensity (a.u.)
CGGTCGCCAATTAACCATTCAGAAATCAGAAGAGTAGCAACGGAGTCACCTAGTGCAG	4900 fluorescence intensity (a.u.)
TTTCTTAAGTGCTTTTAATTAGCAACGTAACTGGAGGAGCCGGAGTCACCTAGTGCAG	8140 fluorescence intensity (a.u.)
